Laboratory results published in the supplement of paper PMC11741623.
Some of the results follow. Interaction screen of human proteins with wild-type SARS-CoV-2 proteins by split-DHFR complementation in yeast, 1 µg/mL methotrexate. Value = fitness of the pair (three or more lineages) minus that of the viral protein without a human partner, on a scale set by negative (0) and fused positive (1) controls, mean of up to three cultures; higher = more likely to interact. Active = false discovery rate below 0.05 (one-sided t-test) in at least one culture. Nearly all pairs are not hits, and differences among them are mostly noise (correlation between cultures about 0.3); most hits were seen in one culture only. Human sequences are the Swiss-Prot entries looked up by gene name; the clone may be another isoform. NSP2 values were corrected by the authors for a growth advantage. Listed are human proteins with a hit and a random twelfth of the others.

What was measured:
Assay in all cases: yeast fitness gain over the viral ORF with no human partner (scaled fitness); higher = more likely to interact
SARS-CoV-2 E = biological target: SARS-CoV-2 E
Protocol: (§1)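 Split mouse DHFR complementation in pooled diploid yeast: human ORFeome clones carry one fragment and viral ORFs the other; barcoded lineages compete in 1 µg/mL methotrexate and fitness is read by barcode sequencing in up to three cultures.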

SARS-CoV-2 M = biological target: SARS-CoV-2 M
Protocol: as §1

SARS-CoV-2 N = biological target: SARS-CoV-2 N
Protocol: as §1

SARS-CoV-2 NSP1 = biological target: SARS-CoV-2 NSP1
Protocol: as §1

SARS-CoV-2 NSP10 = biological target: SARS-CoV-2 NSP10
Protocol: as §1

SARS-CoV-2 NSP12 = biological target: SARS-CoV-2 NSP12
Protocol: as §1

SARS-CoV-2 NSP13 = biological target: SARS-CoV-2 NSP13
Protocol: as §1

SARS-CoV-2 NSP15 = biological target: SARS-CoV-2 NSP15
Protocol: as §1

SARS-CoV-2 NSP16 = biological target: SARS-CoV-2 NSP16
Protocol: as §1

SARS-CoV-2 NSP2 = biological target: SARS-CoV-2 NSP2
Protocol: as §1

SARS-CoV-2 NSP4 = biological target: SARS-CoV-2 NSP4
Protocol: as §1

SARS-CoV-2 NSP5 = biological target: SARS-CoV-2 NSP5
Protocol: as §1

SARS-CoV-2 NSP6 = biological target: SARS-CoV-2 NSP6
Protocol: as §1

SARS-CoV-2 NSP7 = biological target: SARS-CoV-2 NSP7
Protocol: as §1

SARS-CoV-2 NSP8 = biological target: SARS-CoV-2 NSP8
Protocol: as §1

SARS-CoV-2 NSP9 = biological target: SARS-CoV-2 NSP9
Protocol: as §1

SARS-CoV-2 ORF10 = biological target: SARS-CoV-2 ORF10
Protocol: as §1

SARS-CoV-2 ORF3A = biological target: SARS-CoV-2 ORF3A
Protocol: as §1

SARS-CoV-2 ORF3B = biological target: SARS-CoV-2 ORF3B
Protocol: as §1

SARS-CoV-2 ORF6 = biological target: SARS-CoV-2 ORF6
Protocol: as §1

SARS-CoV-2 ORF7A = biological target: SARS-CoV-2 ORF7A
Protocol: as §1

SARS-CoV-2 ORF7B = biological target: SARS-CoV-2 ORF7B
Protocol: as §1

SARS-CoV-2 ORF8 = biological target: SARS-CoV-2 ORF8
Protocol: as §1

SARS-CoV-2 ORF9B = biological target: SARS-CoV-2 ORF9B
Protocol: as §1

[1] = biological target: SARS-CoV-2 ORF9Bwu (the 73-codon ORF)
Protocol: as §1

SARS-CoV-2 S = biological target: SARS-CoV-2 S
Protocol: as §1

Measured: yeast fitness gain

B1: SLC38A7, Q9NVC3 (protein)
chain: MAQVSINNDYSEWDLSTDAGERARLLQSPCVDTAPKSEWEASPGGLDRGTTSTLGAIFIVVNACLGAGLLNFPAAFSTAGGVAAGIALQMGMLVFIISGLVILAYCSQASNERTYQEVVWAVCGKLTGVLCEVAIAVYTFGTCIAFLIIIGDQQDKIIAVMAKEPEGASGPWYTDRKFTISLTAFLFILPLSIPREIGFQKYASFLSVVGTWYVTAIVIIKYIWPDKEMTPGNILTRPASWMAVFNAMPTICFGFQCHVSSVPVFNSMQQPEVKTWGGVVTAAMVIALAVYMGTGICGFLTFGAAVDPDVLLSYPSEDMAVAVARAFIILSVLTSYPILHFCGRAVVEGLWLRYQGVPVEEDVGRERRRRVLQTLVWFLLTLLLALFIPDIGKVISVIGGLAACFIFVFPGLCLIQAKLSEMEEVKPASWWVLVSYGVLLVTLGAFIFGQTTANAIFVDLLA
inactive: SARS-CoV-2 E -0.0194 | SARS-CoV-2 M 0.024 | SARS-CoV-2 N -0.121 | SARS-CoV-2 NSP1 = 0.0552 | SARS-CoV-2 NSP10 = -0.0124 | SARS-CoV-2 NSP12 = 0.0519 | SARS-CoV-2 NSP13 = -0.00476 | SARS-CoV-2 NSP15 = -0.0118 | SARS-CoV-2 NSP16 = 0.0367 | SARS-CoV-2 NSP2 = -0.138 | SARS-CoV-2 NSP4 = 0.0424 | SARS-CoV-2 NSP5 = -0.0852 | SARS-CoV-2 NSP6 = 0.0981 | SARS-CoV-2 NSP7 = 0.0516 | SARS-CoV-2 NSP8 = -0.0995 | SARS-CoV-2 NSP9 = 0.104 | SARS-CoV-2 ORF10 = -0.00729 | SARS-CoV-2 ORF3A 0.0177 | SARS-CoV-2 ORF3B -0.0168 | SARS-CoV-2 ORF6 = 0.0219 | SARS-CoV-2 ORF7A -0.00425 | SARS-CoV-2 ORF7B 0.0247 | SARS-CoV-2 ORF8 = 0.0122 | SARS-CoV-2 ORF9B 0.00449 | [1] 0.0535 | SARS-CoV-2 S -0.0575

B2: KRT33B, Q14525 (protein)
chain: MPYNFCLPSLSCRTSCSSRPCVPPSCHGYTLPGACNIPANVSNCNWFCEGSFNGSEKETMQFLNDRLASYLEKVRQLERDNAELENLIRERSQQQEPLLCPSYQSYFKTIEELQQKILCSKSENARLVVQIDNAKLAADDFRTKYQTEQSLRQLVESDINSLRRILDELTLCRSDLEAQMESLKEELLSLKQNHEQEVNTLRCQLGDRLNVEVDAAPAVDLNQVLNETRNQYEALVETNRREVEQWFATQTEELNKQVVSSSEQLQSYQAEIIELRRTVNALEIELQAQHNLRYSLENTLTESEARYSSQLSQVQSLITNVESQLAEIRSDLERQNQEYQVLLDVRARLECEINTYRSLLESEDCKLPSNPCATTNACEKPIGSCVTNPCGPRSRCGPCNTFGY
inactive: SARS-CoV-2 E -0.0371 | SARS-CoV-2 M -0.114 | SARS-CoV-2 N 0.0744 | SARS-CoV-2 NSP1 = -0.0142 | SARS-CoV-2 NSP10 = -0.0163 | SARS-CoV-2 NSP12 = -0.0199 | SARS-CoV-2 NSP13 = 0.0353 | SARS-CoV-2 NSP15 = -0.0376 | SARS-CoV-2 NSP16 = -0.0604 | SARS-CoV-2 NSP2 = -0.164 | SARS-CoV-2 NSP4 = -0.227 | SARS-CoV-2 NSP5 = -0.0176 | SARS-CoV-2 NSP6 = 0.0644 | SARS-CoV-2 NSP7 = 0.0272 | SARS-CoV-2 NSP8 = 0.0446 | SARS-CoV-2 NSP9 = 0.0277 | SARS-CoV-2 ORF10 = -0.0126 | SARS-CoV-2 ORF3A 0.0279 | SARS-CoV-2 ORF3B 0.0527 | SARS-CoV-2 ORF6 = -0.0308 | SARS-CoV-2 ORF7A -0.0144 | SARS-CoV-2 ORF7B 0.058 | SARS-CoV-2 ORF8 = -0.0203 | SARS-CoV-2 ORF9B -0.00506 | [1] -0.0415 | SARS-CoV-2 S 0.0138
